Among all 310,000 compounds or so, about 2,200 (0.71%) showed an effect of 50% or more. Effects have a minus sign here. The list shows a part of the results.
These compounds were tested against human ether-à-go-go-related gene (hERG) potassium channel (human, UniProt Q12809) (assay: primary screen, population patch clamp on CHO cells stably expressing hERG).
human ether-à-go-go-related gene (hERG) potassium channel, sequence (Q12809 whole entry, looked up): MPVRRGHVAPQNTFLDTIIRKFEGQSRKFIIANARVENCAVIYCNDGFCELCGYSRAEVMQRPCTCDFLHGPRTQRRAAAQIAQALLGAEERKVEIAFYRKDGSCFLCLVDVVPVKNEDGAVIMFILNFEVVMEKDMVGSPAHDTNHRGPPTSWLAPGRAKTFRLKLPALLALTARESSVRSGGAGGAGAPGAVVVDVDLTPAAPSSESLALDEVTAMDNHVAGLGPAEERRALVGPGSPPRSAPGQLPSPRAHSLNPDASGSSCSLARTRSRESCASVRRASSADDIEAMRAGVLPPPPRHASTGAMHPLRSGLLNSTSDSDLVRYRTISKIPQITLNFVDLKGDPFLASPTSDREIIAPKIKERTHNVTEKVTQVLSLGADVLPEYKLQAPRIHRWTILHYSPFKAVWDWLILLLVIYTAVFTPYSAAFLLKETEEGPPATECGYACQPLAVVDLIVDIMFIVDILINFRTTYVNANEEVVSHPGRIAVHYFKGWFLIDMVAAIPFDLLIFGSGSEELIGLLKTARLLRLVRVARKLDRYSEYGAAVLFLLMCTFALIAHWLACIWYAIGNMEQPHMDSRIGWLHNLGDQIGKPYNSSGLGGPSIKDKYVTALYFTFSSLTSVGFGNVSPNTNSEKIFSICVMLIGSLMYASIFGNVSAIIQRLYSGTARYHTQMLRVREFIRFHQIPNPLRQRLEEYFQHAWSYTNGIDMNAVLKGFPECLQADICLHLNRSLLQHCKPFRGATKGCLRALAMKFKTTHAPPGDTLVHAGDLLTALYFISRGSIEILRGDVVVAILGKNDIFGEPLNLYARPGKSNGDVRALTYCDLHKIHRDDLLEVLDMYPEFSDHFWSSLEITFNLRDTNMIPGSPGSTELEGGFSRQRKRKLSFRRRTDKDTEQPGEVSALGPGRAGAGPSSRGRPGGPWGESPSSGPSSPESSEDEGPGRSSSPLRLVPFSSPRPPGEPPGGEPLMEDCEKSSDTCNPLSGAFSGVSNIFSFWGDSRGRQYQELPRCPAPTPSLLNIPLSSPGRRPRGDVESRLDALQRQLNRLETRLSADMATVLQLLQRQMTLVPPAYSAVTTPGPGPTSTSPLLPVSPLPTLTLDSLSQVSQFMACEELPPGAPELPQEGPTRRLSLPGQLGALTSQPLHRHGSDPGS

Compared with `COc1ccc(NC(=O)Nc2cc(C(C)(C)C)on2)cc1OC`, `CCN(Cc1nc(-c2ccc(OC)c(OC)c2)no1)C(=O)c1ccoc1C` is higher in “hERG current change (%, negative = inhibition) at 1uM” value: 6.45% for the first, 15.5% for the second.

Compared with `COc1cc(-c2nnc(SCC(=O)N3c4ccccc4Sc4ccccc43)o2)cc(OC)c1OC`, `COc1ccccc1N1CCN(C(=O)c2sc3nc(-c4ccccc4)cn3c2C)CC1` is lower in “hERG current change (%, negative = inhibition) at 1uM” value: 12.2% for the first, -6.39% for the second.

First: CN(C(=O)CSc1nnc(-c2ccco2)n1N)C1CCCCC1
Second: COc1ccccc1N(CCC#N)C(=O)CSc1nnc2ccccn12
The “hERG current change (%, negative = inhibition) at 1uM” value of the first is lower: 1.29% for the first, 2.12% for the second.

Going from `Cc1cc(NC(=O)CSc2nc3c(c(=O)n2-c2ccc(Br)cc2)SCC3)no1` to `Cn1c(SCc2cccnc2)nc2c(c1=O)SCC2`, the “hERG current change (%, negative = inhibition) at 1uM” value falls from 6.41% to 2.1%.

First: O=C(c1ccc(=O)[nH]c1)N1CCN(S(=O)(=O)c2cc(C(F)(F)F)ccc2Cl)CC1
Second: Cc1ccc(C)c2[nH]c(=O)c(CCNC(=O)c3ccc(S(=O)(=O)N4CCOCC4)cc3)cc12
The “hERG current change (%, negative = inhibition) at 1uM” value of the first is lower: 4.55% for the first, 9.64% for the second.

Going from `C/C(=N\NC(=O)CN1CCN(Cc2ccc(C)cc2)CC1)c1ccncc1` to `Cc1ccc(S(=O)(=O)N2CCN(CCNC(=O)C(=O)NCc3ccccc3)CC2)cc1`, the “hERG current change (%, negative = inhibition) at 1uM” value rises from -77.9% to 10%.

Compared with `Cc1ccc2cc(CCNC(=O)c3ccc(Br)o3)c(=O)[nH]c2c1`, `Cc1ccc(C)c(OCC(=O)NC(Cc2c[nH]c3ccccc23)C(=O)O)c1` (centres unmarked) is higher in “hERG current change (%, negative = inhibition) at 1uM” value: 0.341% for the first, 16% for the second.

Compared with `COc1ccc(OCc2cc(C(=O)N3CCOCC3)no2)c(Cl)c1`, `COc1cc(/C=N/NC(=O)c2csc3c2CCCC3)ccc1OCCN1CCOCC1` is lower in “hERG current change (%, negative = inhibition) at 1uM” value: 9.25% for the first, 1.6% for the second.

Compared with `O=C(O)c1cc(S(=O)(=O)Nc2ccc3oc(=O)sc3c2)ccc1O`, `O=C(O)c1cccc(Nc2ccc([N+](=O)[O-])cn2)c1` is higher in “hERG current change (%, negative = inhibition) at 1uM” value: 8.09% for the first, 15.7% for the second.

First: CNC(=O)NC(=S)NC(=O)c1ccccc1Cl
Second: CC(=O)c1ccc(NC(=O)CCNC(=O)c2ccccc2Cl)cc1
The “hERG current change (%, negative = inhibition) at 1uM” value of the first is higher: 6.42% for the first, -19.8% for the second.

First: Cl.O=C(O)c1ccc(Nc2ncnc3ccccc23)cc1
Second: N#C/C(=C/c1cn(CC(=O)O)c2ccccc12)c1ccc(F)cc1
The “hERG current change (%, negative = inhibition) at 1uM” value of the first is higher: 9.68% for the first, -2.24% for the second.

Compared with `CCc1ccc(-n2c(=O)c3c(C)c(C(=O)N(C)C)sc3n(CC(=O)NCC3CCCO3)c2=O)cc1` (centres unmarked), `CCCOc1ccc(N2C(=O)CC(N(C(=O)c3ccco3)c3ccc(OCCC)cc3)C2=O)cc1` (centres unmarked) is lower in “hERG current change (%, negative = inhibition) at 1uM” value: -5.42% for the first, -8.67% for the second.

First: c1ccc(Cn2nnc3c(N4CCCC4)ncnc32)cc1
Second: Cn1c(CO)cnc1SCc1ccccc1
The “hERG current change (%, negative = inhibition) at 1uM” value of the first is lower: 0.773% for the first, 3.67% for the second.

First: Cc1ccc(C(=O)NCCNc2ncc(C(F)(F)F)cc2Cl)cc1[N+](=O)[O-]
Second: O=C(NCCNC(=O)c1cccc(O)c1)c1cccc(O)c1
The “hERG current change (%, negative = inhibition) at 1uM” value of the first is lower: -2.1% for the first, 13.1% for the second.

Compared with `CCOc1ccc(NC(=S)NCCCN2CCN(C3CCCCC3)CC2)cc1`, `Cc1ccc(C(=O)C2CCN(CC(=O)NC3CCCCC3)CC2)cc1` is lower in “hERG current change (%, negative = inhibition) at 1uM” value: 0.716% for the first, -13.6% for the second.

Going from `O=C(N/N=C/C(Cl)=C\c1ccccc1)c1cccs1` to `Nc1ccc(S(=O)(=O)c2ccccc2)nc1`, the “hERG current change (%, negative = inhibition) at 1uM” value falls from 12.6% to 4.93%.

First: N#Cc1c(/N=C/c2ccc(-c3ccccc3C(=O)O)o2)sc2c1CCCC2
Second: Cc1cccc(C2c3[nH]c4ccccc4c3CCN2C(=O)c2noc3c2CCCC3)n1 (centres unmarked)
The “hERG current change (%, negative = inhibition) at 1uM” value of the first is higher: 18.3% for the first, 2.76% for the second.

Going from `Cc1nn(CCCC(=O)NCc2ccccc2)c(C)c1[N+](=O)[O-]` to `CC(C)CNC(=O)CCc1nc(-c2ccccc2)no1`, the “hERG current change (%, negative = inhibition) at 1uM” value falls from 7% to 1.87%.

First: CCCC(=O)N1CCN(c2nc(CC(C)C)c3c(c2C#N)CCC3)CC1
Second: CC(=O)c1ccc(N2CCN(CN3C(=O)CC4(CCCC4)C3=O)CC2)c(F)c1
The “hERG current change (%, negative = inhibition) at 1uM” value of the first is lower: 0.0417% for the first, 6.48% for the second.

Going from `O=C(CSc1nc(Nc2ccccc2)nc(N2CCOCC2)n1)Nc1cc(Cl)ccc1O` to `O=C(CCN1CCN(c2ccc(Cl)cc2)CC1)Nc1ccccc1F`, the “hERG current change (%, negative = inhibition) at 1uM” value falls from 6.18% to 5.25%.

First: NC(=O)c1c(N)sc(=S)n1CC1CCCO1 (centres unmarked)
Second: O=C(CCC1CCCC1)NNC(=O)c1ccc(F)cc1
The “hERG current change (%, negative = inhibition) at 1uM” value of the first is higher: 10.9% for the first, -1.96% for the second.

First: COc1ccccc1C(=O)Nc1ccc(Oc2nnc(-c3ccc(C)cc3)c3ccccc23)cc1
Second: COc1ccc(-c2nc3scc(-c4ccccc4)n3n2)cc1
The “hERG current change (%, negative = inhibition) at 1uM” value of the first is higher: 20.2% for the first, 11.8% for the second.

First: CC1CC(C)CN(C(=S)SCc2nc(N)nc(Nc3ccccc3)n2)C1 (centres unmarked)
Second: CCNC(=S)N1CCN(c2ccccc2OCC)CC1
The “hERG current change (%, negative = inhibition) at 1uM” value of the first is lower: 7.72% for the first, 14.6% for the second.

Compared with `CCOC(=O)c1[nH]cnc1C(=O)N[C@@H](C)c1ccccc1`, `CCOC(=O)C1C(=O)NC(c2ccccc2)=NC1c1cccc(Br)c1` (centres unmarked) is higher in “hERG current change (%, negative = inhibition) at 1uM” value: 11.1% for the first, 16.7% for the second.

First: C[C@@H](CSc1ccc(Br)cc1)CN1CC[C@H](O)CCC1=O
Second: CC(=O)c1cccc(NC(=O)NC2CC(=O)N(c3ccc4c(c3)OCCO4)C2)c1 (centres unmarked)
The “hERG current change (%, negative = inhibition) at 1uM” value of the first is higher: 13.2% for the first, 3.93% for the second.

Compared with `Cn1nc(C(F)(F)F)c(-c2ccccc2)c1NC(=O)c1ccco1`, `O=C(Nc1ccccc1)OC(CN1CCCCC1)C(F)(F)F` (centres unmarked) is lower in “hERG current change (%, negative = inhibition) at 1uM” value: 13.3% for the first, 8.2% for the second.

First: COc1ccc(NC(=O)Nc2ccc(CC(=O)O)cc2)cc1
Second: CCOC(=O)c1ccc(NC(=O)C2(c3ccc(OC)cc3)CCOCC2)cc1
The “hERG current change (%, negative = inhibition) at 1uM” value of the first is higher: 19.7% for the first, 4.96% for the second.

Going from `CCN(CC)S(=O)(=O)c1ccc(NC(=S)NC(=O)C(C)C)cc1` to `COC(=O)Nc1ccc(S(=O)(=O)NCCO)cc1`, the “hERG current change (%, negative = inhibition) at 1uM” value falls from 3.03% to -3.07%.

Going from `Cc1cccc(CC(C)NC(=O)c2cc(COc3ccc(F)cc3F)on2)n1` (centres unmarked) to `Cc1ccccc1OCCC(=O)OCC(=O)Nc1c(F)cccc1F`, the “hERG current change (%, negative = inhibition) at 1uM” value rises from -22.7% to 14.7%.

First: Nc1nc(SCC(=O)Nc2ncc(Cl)cc2Cl)n[nH]1
Second: CCOC(=O)c1ccc(-c2nnc(-c3ccc(Cl)cc3Cl)o2)cc1
The “hERG current change (%, negative = inhibition) at 1uM” value of the first is higher: 11.6% for the first, -6.75% for the second.

First: O=c1c2oc3ccccc3c2[nH]c(=S)n1-c1ccc(F)cc1
Second: CC1CC(=O)N(CC(=O)Nc2ccc(F)cc2)c2ccccc2S1(=O)=O (centres unmarked)
The “hERG current change (%, negative = inhibition) at 1uM” value of the first is higher: 10.3% for the first, 9.51% for the second.

Compared with `COC(=O)CSc1nc2cc(C)cc(C)c2cc1C#N`, `COc1ccc(NC(=O)c2sc(SC)nc2N)cc1` is lower in “hERG current change (%, negative = inhibition) at 1uM” value: 13.2% for the first, 7.92% for the second.

Compared with `CC(=O)N(C)c1ccc(N=NC2C(=O)N(C(N)=S)N=C2C)cc1` (centres unmarked), `Cc1cccc(N(C)S(=O)(=O)c2c[nH]c3ccc([N+](=O)[O-])cc23)c1` is higher in “hERG current change (%, negative = inhibition) at 1uM” value: 10.7% for the first, 11.9% for the second.

First: S=c1[nH]ncn1/N=C/c1ccccn1
Second: CC/C(O)=C1\C(=O)CCCC1=NCCc1nc2ccccc2[nH]1
The “hERG current change (%, negative = inhibition) at 1uM” value of the first is lower: 2.63% for the first, 13.7% for the second.

First: Cc1ccc(-c2noc(CSc3nnc(-c4ccncc4)n3-c3ccc(F)cc3)n2)cc1
Second: Fc1cccc(F)c1-c1nc(-c2ccc(Cl)cc2)no1
The “hERG current change (%, negative = inhibition) at 1uM” value of the first is lower: 6.46% for the first, 11.5% for the second.

Going from `C/C=C(\C)C(=O)OC1C(C)=C2C(C1OC(=O)CCCCC)C(C)(OC(C)=O)CC(OC(=O)CCC)C1(O)C2OC(=O)C1(C)O` (centres unmarked) to `CC(C)(C)[C@H]1C=C(C(=O)O)O[C@@H](OCCCCO)C1`, the “hERG current change (%, negative = inhibition) at 1uM” value rises from 1.84% to 11.2%.

First: CCOC(=O)c1cccc(NC(=O)/C=C/c2cccc([N+](=O)[O-])c2)c1
Second: CCOC(=O)C1=C(C)NC(=O)NC1/C=C/c1ccccc1OC (centres unmarked)
The “hERG current change (%, negative = inhibition) at 1uM” value of the first is lower: -1.74% for the first, 14.9% for the second.

Compared with `Cn1c(N)c(C#N)c(C#N)c1-c1ccccc1`, `Cc1c(CCC(C)C)c(=O)n2c([nH]c3ccccc32)c1C#N` is higher in “hERG current change (%, negative = inhibition) at 1uM” value: -0.668% for the first, 19.8% for the second.

Compared with `COc1ccccc1N=Cc1c(C)[nH]n(-c2ccc(C)cc2C)c1=O`, `COc1ccc(Cl)cc1N=Cc1c(O)c2ccccc2oc1=O` is higher in “hERG current change (%, negative = inhibition) at 1uM” value: 12.6% for the first, 22.6% for the second.

Compared with `O=C(c1ccc2c(c1)OCO2)N(c1ccc(Cl)cc1)C1C=CS(=O)(=O)C1` (centres unmarked), `CC(NC(=O)CN1c2cccc3cccc(c23)S1(=O)=O)c1ccc(S(N)(=O)=O)cc1` (centres unmarked) is higher in “hERG current change (%, negative = inhibition) at 1uM” value: -1.21% for the first, 3.5% for the second.

Going from `Br.CC(C)(C)c1ccc(OCC(=O)NN2Cc3ccccc3C2=N)cc1` to `CC(Cc1ccccc1)NCCC(=O)NC(C)Cc1ccccc1` (centres unmarked), the “hERG current change (%, negative = inhibition) at 1uM” value rises from -6.2% to 12.1%.

Going from `O=C(OCc1cc(=O)n2cc(Br)ccc2n1)c1ccc(Cl)c(S(=O)(=O)NCc2ccccc2)c1` to `COCCNC(=O)[C@H]1C[C@@H]1[C@H](NP(=O)(c1ccccc1)c1ccccc1)c1ccccc1`, the “hERG current change (%, negative = inhibition) at 1uM” value falls from 12.7% to 6.92%.

Compared with `C[S+](CC[C@H](N)C(=O)O)C[C@H]1O[C@@H](n2cnc3c(N)ncnc32)[C@H](O)[C@@H]1O.[Cl-]` (some centres unmarked), `COc1ccc(OC)c(NC(=O)C2CCCNC2=O)c1` (centres unmarked) is lower in “hERG current change (%, negative = inhibition) at 1uM” value: 8.95% for the first, 4.53% for the second.

Going from `COc1c2c(cc3oc(=O)ccc13)OC(C)(C)C=C2` to `COc1ccc(CCNC(=O)c2cc3sc(Cl)cc3n2C)cc1OC`, the “hERG current change (%, negative = inhibition) at 1uM” value rises from 2.48% to 9.36%.

For `O=c1ccc(Br)c[nH]1`, the “hERG current change (%, negative = inhibition) at 1uM” value was 8.12%.

Source: publication PMC4336329 (PLoS ONE, 2015)
